{"source": "PubChem BioAssay AID624170", "about": "(National Center for Advancing Translational Sciences (NCATS), 2012)", "note": "The campaign covered roughly 410,000 compounds. About 850 (0.21%) were called active. Calls follow the shape of the dose curve; as a rule, active = well fitted inhibition curve with a large enough effect; inconclusive = small, poorly fitted or top-dose-only effect, or another doubt; inactive = no such curve, though single readings can be large or run the other way. Inconclusive means that the source gave no clear call. No potency is given beside an inconclusive call; the fits are too rough. Potency is read from the fitted curve at half-maximal effect; tags tell the direction and shape of the fitted curve."}
{"target": "Glutaminase kidney isoform, mitochondrial (Homo sapiens) (UniProt O94925)", "sequence (O94925 whole entry, looked up, canonical isoform)": "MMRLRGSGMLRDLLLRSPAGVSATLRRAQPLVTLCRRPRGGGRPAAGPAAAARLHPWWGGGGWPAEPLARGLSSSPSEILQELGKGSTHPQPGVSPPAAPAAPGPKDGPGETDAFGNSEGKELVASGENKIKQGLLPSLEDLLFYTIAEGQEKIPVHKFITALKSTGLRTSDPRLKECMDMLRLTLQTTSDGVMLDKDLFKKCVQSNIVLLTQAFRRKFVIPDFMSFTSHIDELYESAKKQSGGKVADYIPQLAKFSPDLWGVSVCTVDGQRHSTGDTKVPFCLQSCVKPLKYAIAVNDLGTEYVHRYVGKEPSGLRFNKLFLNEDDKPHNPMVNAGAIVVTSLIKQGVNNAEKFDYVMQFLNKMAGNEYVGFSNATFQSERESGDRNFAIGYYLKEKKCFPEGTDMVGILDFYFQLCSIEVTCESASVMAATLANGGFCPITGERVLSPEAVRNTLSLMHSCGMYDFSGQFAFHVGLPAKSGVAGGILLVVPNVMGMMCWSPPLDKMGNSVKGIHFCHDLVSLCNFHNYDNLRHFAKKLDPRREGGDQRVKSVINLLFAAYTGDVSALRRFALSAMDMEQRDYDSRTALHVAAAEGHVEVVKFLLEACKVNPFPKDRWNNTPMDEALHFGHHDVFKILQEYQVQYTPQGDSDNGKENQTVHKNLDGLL", "assay": "qHTS for Inhibitors of Glutaminase (GLS)", "settings": "GLS enzymatic activity, qHTS titration; series mostly up to 45.5 µM", "from_the_text": "Glutaminase (GLS) catalyzes the hydrolysis of glutamine into glutamate and ammonia. It plays a critical role in glutaminolysis, which is an important energy source for proliferating cells. It was shown that c-Myc, an oncogenic transcription factor known to regulate microRNAs and to stimulate cell proliferation, increases glutamine metabolism by stimulating the expression of GLS via direct suppression of miR23a and miR23b.\nGLS is also thought to play a pathogenic role on HAD using a human HIV-1 infected macrophage system. […] GLS inhibition limits glutamate release and provides neuroprotection against HIV-1 infected macrophages.\nThe overall goal of this project is to identify small molecule inhibitors of GLS through quantitative high throughput screening (qHTS) of the MLSMR. A validated potent and selective inhibitor can be used as a tool molecule to further study the pharmacology of its target as well as explore its potential therapeutic application in cancer and inflammatory neurological disorders, such as HIV1-associated dementia (HAD) and multiple sclerosis.\nNIH Chemical Genomics Center [NCGC]\nNIH Molecular Libraries Probe Centers Network [MLPCN]\nAssay Submitter (PI): Barbara S. Slusher, Johns Hopkins University\nThree 3 uL of hKGA is dispensed into black well 1536-well plates in 45 mM KH2PO4 (pH 8.2), 0.02% Tween-20. Then 23 nL of compounds are added through pin tool transfer. To this, 1 uL of 1mM L-Glutamine and 1 uL of a solution of L-Glutamateoxidase, HRP, Amplex red are added. Plate is centrifuged for 25 sec before an initial fluorescence read is obtained on the ViewLux, after 30 min of RT incubation, the final read is taken on the ViewLux."}
{"smiles": "CC(C)(C)c1ccc2c(c1)OC(C(=O)N/N=C\\c1ccc(-c3cccc(C(=O)O)c3)o1)CO2", "note": "(stereo not drawn)", "Potency": "inconclusive [inhibitor, single point]"}
{"smiles": "Cc1c(CC(=O)O)c(=O)oc2c(C)c3occ(-c4ccc(Br)cc4)c3cc12", "Potency": "inconclusive [inhibitor, single point]"}
{"smiles": "Cc1cc(N2C(=O)C(O)=C(C(=O)c3cc4ccccc4o3)C2c2cccc(Br)c2)no1", "note": "(stereo not drawn)", "Potency": "inconclusive [inhibitor, partial curve, poor fit]"}
